Experimental findings from article PMC6919601, “Identification of Plasmodium dipeptidyl aminopeptidase allosteric inhibitors by high throughput screening” (PLoS ONE, 2019) are described below.

Screen size: about 110,000 compounds; about 230 (0.21%) showed an effect of 50% or more. The list shows a part of the results.
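Further: 30 min substrate incubation versus DMSO and 10 µM JCP410 controls.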

The target of the experiment is DPAP1 (Plasmodium falciparum, UniProt Q8IIJ9). Kind of experiment: primary screen, percent inhibition; read by cleavage of a fluorogenic dipeptide substrate; higher = more effect of the substance. Also on record: species or system P. falciparum D10 trophozoite lysates; single well.
Chain of DPAP1 (Q8IIJ9 whole entry, looked up): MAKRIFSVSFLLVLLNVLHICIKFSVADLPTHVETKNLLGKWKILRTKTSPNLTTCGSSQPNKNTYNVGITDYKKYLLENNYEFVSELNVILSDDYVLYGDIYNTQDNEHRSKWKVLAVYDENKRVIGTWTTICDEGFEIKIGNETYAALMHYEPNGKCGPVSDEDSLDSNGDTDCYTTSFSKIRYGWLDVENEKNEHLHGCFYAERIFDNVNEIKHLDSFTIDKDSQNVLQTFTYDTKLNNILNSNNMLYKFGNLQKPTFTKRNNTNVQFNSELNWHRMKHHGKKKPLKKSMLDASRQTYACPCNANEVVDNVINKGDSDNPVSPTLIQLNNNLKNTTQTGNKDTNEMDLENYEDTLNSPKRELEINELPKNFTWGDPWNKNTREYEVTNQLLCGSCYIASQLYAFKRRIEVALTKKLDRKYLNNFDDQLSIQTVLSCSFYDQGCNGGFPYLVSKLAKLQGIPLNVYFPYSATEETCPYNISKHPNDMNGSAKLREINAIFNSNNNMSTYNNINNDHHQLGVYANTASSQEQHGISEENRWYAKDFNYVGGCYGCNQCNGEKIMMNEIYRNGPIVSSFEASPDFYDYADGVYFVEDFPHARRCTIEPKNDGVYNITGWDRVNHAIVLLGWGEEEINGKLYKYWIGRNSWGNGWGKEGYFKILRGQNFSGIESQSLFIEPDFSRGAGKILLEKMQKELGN
Regarding `Nc1ncc(Br)nc1N`, the “% Inhibition @ 10 uM” value came out at 0.66%. Take `Cc1ccc(-n2c(SCC(=O)c3ccccc3)nc3nncc-3c2O)cc1C`: the “% Inhibition @ 10 uM” value was -6.91%. The result for `COc1ccc(CC(=O)NCc2ccc3c(c2)OCO3)cc1` reads -1.52%; that for `O=C1N/C(=C/c2cc(Br)ccc2O)C(=O)N1Cc1ccccc1F`, -3.29%; that for `Cc1cc(C)cc(OCCCc2c(C)n[nH]c2C)c1`, -4.95%. The result for `Cc1ccc(S(=O)(=O)NC(C(=O)O)C23CC4CC(CC(C4)C2)C3)cc1` (stereo not shown) reads 4.15%.

Take `CCOc1ccc2sc(/C=N/Cc3cccs3)c(O)c2c1`: the “% Inhibition @ 10 uM” value is on record as -3.16%. The result for `O=C(O)c1cccc(COc2cccc(Br)c2)c1` reads 3.53%; that for `COc1cc2c(cc1OC)C(c1cccs1)CC(=O)N2` (stereo not shown), 5.39%. The result for `O=C(CCC(=O)N1Cc2ccccc2Oc2ncccc21)NCCC1=CCCCC1` reads 0.451%; that for `COc1ccc(C(=O)ON=C2C(C)=CC(=O)C=C2C)cc1`, 4.95%. The result for `O=C(CN1C(=O)CSc2ncccc21)NCCCN1CCOCC1` reads 1.03%; that for `OCCN(Cc1ccccc1)Cc1cccc(F)c1`, 1.08%; that for `COc1ccc2c(Sc3ccc(Cl)cc3)c(C(=O)NCCCN3CCCC3=O)[nH]c2c1`, -1.17%. As for `Cc1cc(C)c(S(=O)(=O)NCc2ccc(C(=O)NCCc3ccccc3)cc2)c(C)c1`, the “% Inhibition @ 10 uM” value is -3.35%.

As to `CC1=C(C(=O)Nc2cccnc2)C(c2cccs2)n2nc(-c3ccccc3Cl)nc2N1` (stereo not shown), the “% Inhibition @ 10 uM” value is -3.67%. The result for `CCOc1cc(C)c(Cl)cc1S(=O)(=O)NCc1cccnc1` reads -5.21%. In the case of `O=C(NC1CCCc2ccccc21)c1ccc(CS(=O)c2ccc(Cl)cc2)o1` (stereo not shown) it was 4.79%. In the case of `CCCN(Cc1cc([N+](=O)[O-])ccc1O)CC1CC1` it was 0.00588%; in that of `CC(=O)c1ccc(NC(=O)c2ccc(Oc3ccccc3)cc2)cc1`, -0.318%; in that of `Cc1cc(C)nc(NC2=NCC(=O)N2c2ccccc2Br)n1`, -2.32%. Take `COc1ccc(OC)c(C2CC(=O)N3C(=C2C#N)SCC3(O)c2ccc(F)cc2)c1` (stereo not shown): the “% Inhibition @ 10 uM” value is listed as 3.24%. The result for `COc1ccc(CN(C(=O)c2cccs2)c2ccccc2C(=O)O)cc1` reads 3.9%; that for `O=C(CCCC(=O)Nc1ccc2ccccc2c1)Nc1ccc2ccccc2c1`, -3.48%. The result for `CCCCNC(=O)C1CCN(S(=O)(=O)CC)CC1` reads 2.18%; that for `COc1ccc(-c2cc(C(=O)NCc3ccco3)c3ccccc3n2)cc1OC`, -1.42%; that for `CCCN1C(=O)S/C(=C\c2cc(OC)c(O)cc2Br)C1=O`, -0.519%. The result for `CC(C)CNS(=O)(=O)c1ccc(CCC(=O)N2CCN(C)CC2)cc1` reads -1.61%. Consider `CN(C)CCn1c2ccccc2c2nc3ccc([N+](=O)[O-])cc3cc21`, for which the “% Inhibition @ 10 uM” value was determined as 1.24%. The result for `CC1=N/C(=C/c2cccnc2)C(=O)O1` reads 21.5%. The result for `O=c1[nH]c(=O)n(-c2ccccc2)c2c1C(C(F)(F)F)(C(F)(F)F)NC(c1cccs1)=N2` reads -6.43%; that for `CCOc1ccc(C(=O)N(C(=O)c2ccc(OCC)cc2)c2ncccc2C)cc1`, 3.04%; that for `Cc1ccc(OCCCCn2c(C(C)O)nc3ccccc32)cc1` (stereo not shown), 4.3%. The result for `CCCN(CCC)c1ccc(C2NC(=O)c3c(sc4c3CCN(C)C4)N2)cc1` (stereo not shown) reads 5.31%; that for `Cc1cc(C(F)(F)F)nc(SCC(=O)Nc2ncc(C(F)(F)F)cc2Cl)n1`, 2.42%; that for `Cc1cc(OCCn2c(C)c(C=C3C(=O)N(C)C(=O)N(C)C3=O)c3ccccc32)ccc1Cl`, -1.33%. In the case of `CN1C(=O)c2ccccc2C(C(=O)O)C1c1ccc(F)cc1` (stereo not shown), the “% Inhibition @ 10 uM” value is listed as -5.17%. In the case of `COc1cc(-c2nnc3n(Cc4ccc(F)cc4)c(=O)c4ccccc4n23)cc(OC)c1OC` it was -1.72%; in that of `CCOC(=O)c1cnc(-c2ccccc2)nc1N1CCOCC1`, 2.39%. With `COc1cc(-c2nc3nc(C)cc(C)n3n2)cc(OC)c1OC`, the “% Inhibition @ 10 uM” value is recorded as 1%. The result for `Cc1ccc2nc(NC(=O)c3cc(=O)c4cc(C)cc(C)c4o3)sc2c1` reads 1.9%.

On to `CCOC(=O)c1c(NC(=O)COCc2cc(-c3cccs3)on2)sc2c1CCCC2`, for which the “% Inhibition @ 10 uM” value is listed as -2.69%. The result for `COc1ccc(/C=C/C(=O)NCc2ccccc2C)cc1` reads 11.1%; that for `Cc1ccc(NC(=O)C23CC4CC(C2)CC(n2cncn2)(C4)C3)c(C)c1`, -3.68%; that for `COc1cc(CN2CCN(Cc3ccco3)CC2)cc(OC)c1OC`, 14.3%. For `N#Cc1cc2c(=O)n3ccccc3nc2n(CCc2ccccc2)c1=N`, the “% Inhibition @ 10 uM” value was determined as 5.3%. The result for `Fc1ccc(CN2CCN(C/C=C/c3ccccc3)CC2)cc1` reads -3.71%; that for `OCCN1CCN(Cc2ccccc2Cl)CC1`, 6.6%; that for `Cc1cn2c3ccccc3nc2n1CCCO`, -9.37%. The result for `CC(CNC(=O)Cn1c(=O)c2cccn2c2cccnc21)c1ccccc1` (stereo not shown) reads -2.97%. In the case of `COc1cc(OC)c(C2NC(=O)C(C)S2)c(OC)c1` (stereo not shown) it was -0.239%; in that of `Cc1cc(=O)n(C(C)(C)C)c(=O)n1Cc1ccccc1`, 3.06%.

As for `Cc1ccc2cc(CCN3C(=O)c4ccccc4C3=O)c(O)nc2c1`, the “% Inhibition @ 10 uM” value was -4.81%. The result for `Cc1ccc(-c2c(N3CC(=O)N(CCc4ccccc4)C(=O)C3)c(=O)c2=O)cc1` reads -1.69%. The result for `CCCC[C@H](NC(=O)C(CCS(=O)(=O)c1ccccc1)C(=O)NCc1ccccc1)C(=O)c1nc2ccccc2o1` (stereo partly shown) reads 4.15%; that for `CC1=C(c2ccc(C)cc2)S(=O)(=O)N=C1NCCCOC(C)C`, 3.87%.

`CC1=C(C(=O)Nc2ccccc2C)C(c2ccc(C)o2)n2c(s/c(=C/c3ccoc3)c2=O)=N1` (stereo not shown): the “% Inhibition @ 10 uM” value was -4.82%. The result for `CCOc1cc2c(cc1/C=C1/S/C(=N\c3ccc(N4CCOCC4)cc3)N(C)C1=O)OCO2` reads 5.42%. The result for `CCCCOc1nc2ccccc2nc1NS(=O)(=O)c1ccc(N)cc1` reads -5.5%; that for `Clc1nc(-c2ccccc2)c2c(n1)-c1ccccc1CC2`, 1.57%. `COc1ccc(NC(=O)c2cccc(COc3ccc(Cl)cc3)c2)cn1`: the “% Inhibition @ 10 uM” value worked out at 2.1%.

On to `CN(CCNC(=O)Cn1nc(-c2ccc(Cl)cc2)ccc1=O)Cc1ccccc1`, for which the “% Inhibition @ 10 uM” value is 1.62%.

For the molecule `CCCn1nnc2sc(-c3ccccc3)cc2c1=O`, the “% Inhibition @ 10 uM” value worked out at 2.41%. In the case of `CC(NC(=O)c1c(F)cccc1F)c1nc2ccccc2[nH]1` (stereo not shown) it was -1.29%; in that of `CC(C)NC(=O)/C=C/C(=O)O`, -0.256%; in that of `CC(C)c1ccc(C(=O)N2CCN(Cc3ccc4c(c3)OCO4)CC2)cc1`, -0.95%. In the case of `C#CCOc1ccc(/C=C2\SC(=O)N(CC=C)C2=O)cc1` it was 3.8%; in that of `Cc1nc2c(c(C)nn2C(C)(C)C)c(C)c1CCC(=O)NCc1ccccn1`, -2.45%; in that of `N#CCNC(=O)C(CC(=O)N1CCOCC1)CS(=O)(=O)Cc1ccccc1C(F)(F)F` (stereo not shown), 1.35%.

`O=C(O)CSc1nnnn1-c1ccccc1`: the “% Inhibition @ 10 uM” value was -8.11%.

Turning to `O=C(NCCc1cccc(Cl)c1)NC1CCCCC1`, the “% Inhibition @ 10 uM” value is on record as -4.7%. The result for `O=C(Cc1c(F)cccc1Cl)Nc1ccccn1` reads 0.163%; that for `O=C(Nc1nc2c(Cl)cccc2s1)c1cccnc1Cl`, -2.87%. Turning to `CC(NC(=O)C1CC=CCC1C(=O)O)C12CC3CC(CC(C3)C1)C2` (stereo not shown), the “% Inhibition @ 10 uM” value was -0.999%. Take `CN(C)CC#CC(O)(c1ccccc1)c1ccccc1`: the “% Inhibition @ 10 uM” value is listed as -0.424%.

With `Cc1ccc2nc3c(cc(C#N)c(=N)n3CCc3ccccc3)c(=O)n2c1`, the “% Inhibition @ 10 uM” value is recorded as -1.47%. The result for `C=CCc1cc(/C=C2/C(=N)N3C(c4ccccc4)=CSC3=NC2=O)cc(OC)c1O` reads -5.87%.

Regarding `CCOC(=O)c1c(NC(=O)c2cc(-c3ccc(F)cc3)on2)sc2c1CCCC2`, the “% Inhibition @ 10 uM” value was -1.96%.

With `Cc1noc(C(=O)NC(C)c2ccccc2)c1Cl` (stereo not shown), the “% Inhibition @ 10 uM” value is -5.25%. The result for `CCc1ccc(CNC(=O)c2cnc(SC)nc2C)cc1` reads 3.54%. In the case of `N#CCNC(=O)C(CSCc1ccccc1)NC(=O)c1cccc(NC(=O)N2CCN(Cc3ccccc3)CC2)c1` (stereo not shown) it was -6.98%; in that of `O=C(NCc1cccc(CNC(=O)c2cnccn2)c1)c1cnccn1`, -5.1%. For the molecule `Cc1oc(-c2ccc(Cl)cc2)nc1CSCC(=O)NC1CCN(Cc2ccccc2)CC1`, the “% Inhibition @ 10 uM” value is -2.72%. In the case of `Cc1cccc(OCc2nc(C#N)c(NCc3ccc(F)cc3)o2)c1` it was 0.343%; in that of `O=C1CN2CSCC2C(=O)N1Cc1ccccc1` (stereo not shown), -2.15%.

As to `CCCc1ccc(C(=O)N[C@@H](CC(C)C)C(=O)NCC#N)cc1`, the “% Inhibition @ 10 uM” value is on record as -3.04%. Turning to `Cc1cccc(NC(=O)CCCOc2ccccc2C)c1`, the “% Inhibition @ 10 uM” value was -1.11%. The result for `O=C(CCCN1C(=O)c2ccccc2Sc2ncccc21)NCCc1cccs1` reads -2.39%; that for `Cc1cc(C)n(CCc2nc3c4ccccc4nc(O)n3n2)n1`, 1.5%.

`Cn1c(=N)n(CCCOc2ccccc2)c2ccccc21`: the “% Inhibition @ 10 uM” value is given as -3.29%.

For the molecule `COc1cc(C(=O)NCc2nc3ccccc3n2C(C)C)cc(OC)c1OC`, the “% Inhibition @ 10 uM” value was -5.67%.

With `Cc1cccc(NC(=O)CN(c2ccccc2F)S(=O)(=O)c2ccccc2)c1`, the “% Inhibition @ 10 uM” value worked out at 3.17%. `Cc1ccc(NC2=NC(=O)C(CC(=O)Nc3ccc(C)cc3C)S2)cc1` (stereo not shown): the “% Inhibition @ 10 uM” value is recorded as -14%. The result for `O=C(O)c1c(CNCCc2ccccc2)c2ccccc2n1Cc1ccccc1` reads 19.4%; that for `O=C1c2ccccc2-c2onc3ccc(Cl)c1c23`, 5.37%.

For `CCN1CCCC1CNC(=O)c1ccc(CS(=O)(=O)c2ccccc2C)o1` (stereo not shown), the “% Inhibition @ 10 uM” value was -2.72%. In the case of `O=C(NC(c1ccccc1)c1ccccc1)c1cnc2ccccn2c1=O`, the “% Inhibition @ 10 uM” value is given as -3.44%. In the case of `c1ccc(C2COC(c3cccs3)=N2)cc1` (stereo not shown) it was 2.9%. The result for `CCCCn1cnc2sc(-c3ccccc3)cc2c1=O` reads 1.86%. In the case of `CCC1(C)Cc2nc(N)c(C#N)cc2CO1` (stereo not shown) it was -3.34%; in that of `CN(C)CCN(Cc1ccccc1)Cc1ccc(F)cc1`, -7.02%; in that of `CCc1c(O)n(C2CCCCC2)c(=S)[nH]c1=O`, -1.48%. In the case of `Cc1cc(O)c(C2=Nc3ccccc3SC(c3ccc([N+](=O)[O-])cc3)C2)c(=O)o1` (stereo not shown), the “% Inhibition @ 10 uM” value is reported as -0.415%.
